The supplement of paper PMC11876631
Numbering of substitutions follows the chain as printed. Names and notes keep the numbering of the source. ± gives the standard deviation of the averaged measurements. Laboratory Escherichia coli strains with one amino-acid change in an essential protein, pooled on minimal glucose agar with carbenicillin or gentamicin at twice the control MIC (plus kanamycin and chloramphenicol for the plasmids), 48 h. Fold change of barcode share against drug-free plates; higher = less susceptible. Active = above 20 in both replicates (the paper's putatively resistant). '<' = one read or none on drug, '>' = one read or none on a drug-free plate. Shares are relative, so most strains fall below 1 when a few take over. Listed are strains with at least 15 reads on both drug-free plates, and hits; most hits rest on fewer reference reads. Replicate rank correlation about 0.5. Edits are read from barcodes.

B1: adk I4Q (protein)
chain: MRIQLLGAPGAGKGTQAQFIMEKYGIPQISTGDMLRAAVKSGSELGKQAKDIMDAGKLVTDELVIALVKERIAQEDCRNGFLLDGFPRTIPQADAMKEAGINVDYVLEFDVPDELIVDRIVGRRVHAPSGRVYHVKFNPPKVEGKDDVTGEELTTRKDDQEETVRKRLVEYHQMTAPLIGYYSKEAEAGNTKYAKVDGTKPVAEVRADLEKILG
B2: dnaA I26A (protein)
chain: MSLSLWQQCLARLQDELPATEFSMWARPLQAELSDNTLALYAPNRFVLDWVRDKYLNNINGLLTSFCGADAPQLRFEVGTKPVTQTPQAAVTSNVAAPAQVAQTQPQRAAPSTRSGWDNVPAPAEPTYRSNVNVKHTFDNFVEGKSNQLARAAARQVADNPGGAYNPLFLYGGTGLGKTHLLHAVGNGIMARKPNAKVVYMHSERFVQDMVKALQNNAIEEFKRYYRSVDALLIDDIQFFANKERSQEEFFHTFNALLEGNQQIILTSDRYPKEINGVEDRLKSRFGWGLTVAIEPPELETRVAILMKKADENDIRLPGEVAFFIAKRLRSNVRELEGALNRVIANANFTGRAITIDFVREALRDLLALQEKLVTIDNIQKTVAEYYKIKVADLLSKRRSRSVARPRQMAMALAKELTNHSLPEIGDAFGGRDHTTVLHACRKIEQLREESHDIKEDFSNLIRTLSS
B3: dnaA I26W (protein)
chain: B2 chain with A26W
B4: dnaA I26Q (protein)
chain: B2 chain with A26Q
B5: dnaA I26D (protein)
chain: B2 chain with A26D
B6: dnaA I26P (protein)
chain: B2 chain with A26P

Target: Escherichia coli (laboratory strain)
Assay: barcode share on antibiotic plates over drug-free plates; higher = less susceptible
Procedure: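 A pool of E. coli strains, each edited to carry one amino-acid change in an essential protein, was grown for 48 h on minimal glucose agar with or without antibiotic; strain barcodes were sequenced; mean of two replicates.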

[1] = antibiotic: carbenicillin, 2× MIC (3.1 µg/mL)
[2] = antibiotic: gentamicin, 2× MIC (MIC 0.45 µg/mL)

Protein | fold change of barcode share [1] | fold change of barcode share [2]
B1 | 0.502 ± 0.03 | < 0.0171
B2 | 0.319 ± 0.13 | < 0.0108
B3 | 0.232 ± 0.068 | 0.0187 ± 0.011
B4 | 0.219 ± 0.11 | 0.0398 ± 0.05
B5 | 0.274 ± 0.12 | 0.00985 ± 0.0047
B6 | 0.604 ± 0.25 | 0.0128 ± 0.0087
